# The other results are listed elsewhere or left out.
# How the values were obtained:
# Assay in all cases: glycan array binding signal (z-score within array); higher = stronger binding
# Conditions in all cases: glycan notation: IUPAC condensed, linker removed
# [1] = target: Gal(b1-3)GalNAc(b1-3)Gal(a1-4)Gal(b1-4)Glc
# Summary of the method: (§1)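 From the Consortium for Functional Glycomics database, 3228 arrays were curated, keeping only those whose protein sequence was available. Binding is given as a within-array Z-score averaged across arrays sharing a protein sequence and across linkers. Negative Z-scores can be read as non-binding.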
# [2] = target: Gal(b1-3)GalNAc(b1-4)Gal(b1-4)Glc
# Summary of the method: as §1
# [3] = target: Gal(b1-3)GalNAc(b1-4)[Neu5Ac(a2-3)]Gal(b1-4)Glc
# Summary of the method: as §1
# [4] = target: Gal(b1-3)GlcNAc
# Summary of the method: as §1
# [5] = target: Gal(b1-3)GlcNAc(a1-3)Gal(b1-4)GlcNAc
# Summary of the method: as §1
# [6] = target: Gal(b1-3)GlcNAc(a1-6)Gal(b1-4)GlcNAc
# Summary of the method: as §1
# [7] = target: Gal(b1-3)GlcNAc(b1-2)Man
# Summary of the method: as §1
# [8] = target: Gal(b1-3)GlcNAc(b1-2)Man(a1-3)[Gal(b1-3)GlcNAc(b1-2)Man(a1-6)]Man(b1-4)GlcNAc(b1-4)GlcNAc
# Summary of the method: as §1
# [9] = target: Gal(b1-3)GlcNAc(b1-2)Man(a1-3)[Gal(b1-3)GlcNAc(b1-2)Man(a1-6)]Man(b1-4)GlcNAc(b1-4)[Fuc(a1-6)]GlcNAc
# Summary of the method: as §1
# [10] = target: Gal(b1-3)GlcNAc(b1-2)Man(a1-3)[GlcNAc(b1-4)][Gal(b1-3)GlcNAc(b1-2)Man(a1-6)]Man(b1-4)GlcNAc(b1-4)GlcNAc
# Summary of the method: as §1
# [11] = target: Gal(b1-3)GlcNAc(b1-2)[Gal(b1-3)GlcNAc(b1-6)]Man(a1-6)[Gal(b1-3)GlcNAc(b1-2)Man(a1-3)]Man(b1-4)GlcNAc(b1-4)GlcNAc
# Summary of the method: as §1
# [12] = target: Gal(b1-3)GlcNAc(b1-3)Gal(b1-3)GlcNAc
# Summary of the method: as §1
# [13] = target: Gal(b1-3)GlcNAc(b1-3)Gal(b1-4)Glc
# Summary of the method: as §1
# [14] = target: Gal(b1-3)GlcNAc(b1-3)Gal(b1-4)GlcNAc
# Summary of the method: as §1
# [15] = target: Gal(b1-3)GlcNAc(b1-3)Gal(b1-4)GlcNAc(b1-2)Man(a1-3)[Gal(b1-3)GlcNAc(b1-3)Gal(b1-4)GlcNAc(b1-2)Man(a1-6)]Man(b1-4)GlcNAc(b1-4)GlcNAc
# Summary of the method: as §1
# [16] = target: Gal(b1-3)GlcNAc(b1-3)Gal(b1-4)GlcNAc(b1-2)[Gal(b1-3)GlcNAc(b1-3)Gal(b1-4)GlcNAc(b1-6)]Man(a1-6)[Gal(b1-3)GlcNAc(b1-3)Gal(b1-4)GlcNAc(b1-2)Man(a1-3)]Man(b1-4)GlcNAc(b1-4)[Fuc(a1-6)]GlcNAc
# Summary of the method: as §1
# [17] = target: Gal(b1-3)GlcNAc(b1-3)Gal(b1-4)GlcNAc(b1-3)Gal(b1-4)GlcNAc(b1-2)[Gal(b1-3)GlcNAc(b1-3)Gal(b1-4)GlcNAc(b1-3)Gal(b1-4)GlcNAc(b1-6)]Man(a1-6)[Gal(b1-3)GlcNAc(b1-3)Gal(b1-4)GlcNAc(b1-3)Gal(b1-4)GlcNAc(b1-2)Man(a1-3)]Man(b1-4)GlcNAc(b1-4)[Fuc(a1-6)]GlcNAc
# Summary of the method: as §1
# [18] = target: Gal(b1-3)GlcNAc(b1-3)Gal(b1-4)GlcNAc(b1-6)[Gal(b1-3)GlcNAc(b1-3)]Gal(b1-4)Glc
# Summary of the method: as §1
# [19] = target: Gal(b1-3)GlcNAc(b1-3)Gal(b1-4)[Fuc(a1-3)]GlcNAc
# Summary of the method: as §1
# [20] = target: Gal(b1-3)GlcNAc(b1-3)Gal(b1-4)[Fuc(a1-3)]GlcNAc(b1-6)[Gal(b1-3)GlcNAc(b1-3)]Gal(b1-4)Glc
# Summary of the method: as §1
# [21] = target: Gal(b1-3)GlcNAc(b1-3)GalNAc
# Summary of the method: as §1
# [22] = target: Gal(b1-3)GlcNAc(b1-6)Gal(b1-4)GlcNAc
# Summary of the method: as §1
# [23] = target: Gal(b1-3)GlcNAc(b1-6)GalNAc
# Summary of the method: as §1
# [24] = target: Gal(b1-3)GlcNAc(b1-6)[Gal(b1-3)]GalNAc
# Summary of the method: as §1
# [25] = target: Gal(b1-3)GlcNAc6S
# Summary of the method: as §1
# [26] = target: Gal(b1-3)[Fuc(a1-4)]GlcNAc
# Summary of the method: as §1
# [27] = target: Gal(b1-3)[Fuc(a1-4)]GlcNAc(b1-2)Man
# Summary of the method: as §1
# [28] = target: Gal(b1-3)[Fuc(a1-4)]GlcNAc(b1-2)Man(a1-3)[Gal(b1-3)[Fuc(a1-4)]GlcNAc(b1-2)Man(a1-6)]Man(b1-4)GlcNAc(b1-4)[Fuc(a1-6)]GlcNAc
# Summary of the method: as §1
# [29] = target: Gal(b1-3)[Fuc(a1-4)]GlcNAc(b1-3)Gal(b1-3)[Fuc(a1-4)]GlcNAc
# Summary of the method: as §1
# [30] = target: Gal(b1-3)[Fuc(a1-4)]GlcNAc(b1-3)Gal(b1-4)[Fuc(a1-3)]GlcNAc
# Summary of the method: as §1
# [31] = target: Gal(b1-3)[Fuc(a1-4)]GlcNAc(b1-6)GalNAc
# Summary of the method: as §1
# [32] = target: Gal(b1-3)[GlcNAc(b1-6)]GalNAc
# Summary of the method: as §1
# [33] = target: Gal(b1-3)[Neu5Ac(a2-6)]GalNAc
# Summary of the method: as §1
# [34] = target: Gal(b1-3)[Neu5Ac(a2-6)]GlcNAc(b1-4)Gal(b1-4)Glc
# Summary of the method: as §1
# [35] = target: Gal(b1-3)[Neu5Ac(b2-6)]GalNAc
# Summary of the method: as §1
# [36] = target: Gal(b1-4)Gal
# Summary of the method: as §1
# [37] = target: Gal(b1-4)GalNAc(a1-3)[Fuc(a1-2)]Gal(b1-4)GlcNAc
# Summary of the method: as §1
# [38] = target: Gal(b1-4)GalNAc(b1-3)[Fuc(a1-2)]Gal(b1-4)GlcNAc
# Summary of the method: as §1
binder,measurement,setting,value
PX9937A-bvu-521-23-521 (Bacteroides vulgatus) (protein) LDLAPEDYYGAGNFWKEASQPKAFMLGLHAQLRSYYDMFYTLGELRGGTQRVGTSSLNTSLNYADIRSQNISEDIPGISNWNGLYSPIMQVNHFIQEVENGCTFLDDATRSRYLGQAYGMRALYYFMLYRTFGGVPLITKVDILDGKPSADKFYVERATPEATMEFIKADINKSENYFGNNTSFDAYDWSRYATLMLKAEIYMWAAKVSITGFTATGATDLQTAKTALSGIIGHFELMDNFASIFSCDNKKNTEIIFAMPFIEGEASNDGGRFLYQDAVFLGQAYGRNGKVIEKDTLNLKGTGGVFRDEYTEDFWKTFKEGDSRRDATFMEYYMKNDNGTLSEFGCVMKKRIGTINSNDNRIYISDIPVYRYADALLMMAEIENGLNNPCASYINEVRKRAYGDTFEENKYTEGSYAENELAILQERDKEFVSEGKRWFDVLRMHDASGRSLVFSANANYPGTNPILGTEEAYKMLWPVNIGTLNVNPLLTQTPGYGKK,glycan array binding signal (z-score),[1],0.189
same,glycan array binding signal (z-score),[2],-0.217
same,glycan array binding signal (z-score),[3],1.47
same,glycan array binding signal (z-score),[4],-0.312
same,glycan array binding signal (z-score),[5],-0.721
same,glycan array binding signal (z-score),[6],-0.624
same,glycan array binding signal (z-score),[7],-0.189
same,glycan array binding signal (z-score),[8],0.127
same,glycan array binding signal (z-score),[9],-0.366
same,glycan array binding signal (z-score),[10],0.011
same,glycan array binding signal (z-score),[11],-0.357
same,glycan array binding signal (z-score),[12],-0.411
same,glycan array binding signal (z-score),[13],0.542
same,glycan array binding signal (z-score),[14],-0.307
same,glycan array binding signal (z-score),[15],-0.279
same,glycan array binding signal (z-score),[16],0.311
same,glycan array binding signal (z-score),[17],-0.1
same,glycan array binding signal (z-score),[18],0.043
same,glycan array binding signal (z-score),[19],-0.451
same,glycan array binding signal (z-score),[20],0.151
same,glycan array binding signal (z-score),[21],0.063
same,glycan array binding signal (z-score),[22],-0.028
same,glycan array binding signal (z-score),[23],-0.407
same,glycan array binding signal (z-score),[24],-0.301
same,glycan array binding signal (z-score),[25],0.146
same,glycan array binding signal (z-score),[26],-0.408
same,glycan array binding signal (z-score),[27],-0.18
same,glycan array binding signal (z-score),[28],0.172
same,glycan array binding signal (z-score),[29],-0.698
same,glycan array binding signal (z-score),[30],-0.026
same,glycan array binding signal (z-score),[31],-0.248
same,glycan array binding signal (z-score),[32],-0.383
same,glycan array binding signal (z-score),[33],-0.487
same,glycan array binding signal (z-score),[34],-0.564
same,glycan array binding signal (z-score),[35],0.015
same,glycan array binding signal (z-score),[36],-0.373
same,glycan array binding signal (z-score),[37],-0.429
same,glycan array binding signal (z-score),[38],-0.328

# Source: the supplement of paper PMC8728848
